Results: patent US20040161477A1, “Phyllanthus-derived compounds for the prevention and/or treatment of disease associated with a retrovirus” (priority 2000, published 2004)

Columns and labels:
[1] = system: NRTI resistant HIV-1 strain ARP145; experiment: Infection of MT4 cells with NRTI resistant HIV-1 strain ARP145, p24 content; details: 5 to 0.63 μg/ml, FIG. 3
Procedure: The HIV-1 virus stock, described in Example 1, was used to asses the inhibitory effect of by P. amarus geraniin on the infection of CD4^+ lymphoide cells (MT4). The 50% tissue culture infectious dose (TCID50) was determined by infection of MT4 cells with serial dilutions of the virus stock and subsequent quantification of viral p24. content in the cell fluid (HIV-1 p24 core profile ELISA, NEN, Zaventem, Belgium). […] It was previously determined that geraniin was non-toxic at these concentrations. The MT4 target cells were incubated for 7 days in the presence of virus and inhibitor, and fresh medium (containing drugs) was added every other day. Infections were monitored by quantification of p24 content in the cell fluid. Samples without detectable p24 contents (compared to the reference inhibitors and uninfected negative controls) were regarded completely, protected from infection. Otherwise the content of p24 in the fluid was negatively correlated to protection. Each experiment was performed in triplicates. FIG. 2 graphically depicts the results of two independent tests (means, error bars reflect standard deviation).
The strain termed ARP145 (Tisdale et al. (1993), Proc Nat Acad Sci (USA) 90(12): 5653-5656) was obtained from the NIBSC (MRC) and is phenotypically characterized by a 3TC/FTC resistance.

[2] = system: NRTI resistant HIV-1 strain ARP145; experiment: microbe, parasite or virus in culture; details: Human immunodeficiency virus 1, MAGI
[3] = system: NNRTI resistant HIV-1 strain ARP1010; experiment: microbe, parasite or virus in culture; details: Human immunodeficiency virus 1, MAGI
[4] = system: NRTI resistant HIV-1 strain ARP141; experiment: microbe, parasite or virus in culture; details: Human immunodeficiency virus 1, MAGI
[5] = system: NNRTI resistant HIV-1 strain ARP1011; experiment: microbe, parasite or virus in culture; details: Human immunodeficiency virus 1, MAGI
[6] = system: NRTI resistant HIV-1 strain ARP146; experiment: microbe, parasite or virus in culture; details: Human immunodeficiency virus 1, MAGI
[7] = system: NNRTI resistant HIV-1 strain ARP1014; experiment: microbe, parasite or virus in culture; details: Human immunodeficiency virus 1, MAGI

With `O=C1O[C@H]2[C@@H]3OC(=O)c4cc(O)c(O)c(O)c4-c4c(cc(O)c(O)c4O)C(=O)OC[C@H]2O[C@@H](OC(=O)c2cc(O)c(O)c(O)c2)[C@@H]3OC(=O)c2cc(O)c(O)c3c2[C@@H]2C1=CC(=O)[C@](O)(O3)C2(O)O` [Geraniin, geraniin] the “inhibition of NRTI resistant strain compared with wild type (HX10)” value [1] was “No significant difference”, the EC50 [2] was 0.95 µg/mL (≈ 0.997 µM) and the EC50 [3] was 0.83 µg/mL (≈ 0.871 µM). The EC50 [4] was 0.83 µg/mL (≈ 0.871 µM), the EC50 [5] was 0.89 µg/mL (≈ 0.934 µM) and the EC50 [6] was 0.71 µg/mL (≈ 0.745 µM). It also gave an EC50 [7] of 1.1 µg/mL (≈ 1.15 µM).

In brackets after ≈: the same amount, converted by molar mass.
